Over roughly 81,000 sequences, “one-hybrid fitness for binding NBS DNA” has its median near -0.1; the highest 2% begin near 0.36. The list shows a part of the results.
B1: Caulobacter ParB omega fusion; a variant is named by its letters at X, in order, B8GW30 (parent)
chain: MESVVVGEPGMSEGRRGLGRGLSALLGEVDAAPAQAPGEQLGGSREAPIEILQRNPDQPRRTFREEDLEDLSNSIREKGVLQPILVRPSPDTAGEYQIVAGERAWRAAQRAGLKTVPIMVRELDDLAVLEIGIIENVQRADLNVLEEALSYKVLMEKFERTQENIAQTIGKSXSHVANXMRLLXLPDEVQSYLVSGELTAXHARAIAAAADPVALAKQIIEGGLSVRETEALARKAPNLSAGKSKGGRPPRVKDTDTQALESDLSSVLGLDVSIDHRGSTGTLTITYATLEQLDDLCNRLTRGI

Variants of: B1
Assay: one-hybrid fitness for binding NBS DNA (the Noc-binding site; scaled: cognate 1, non-cognate 0); higher = stronger binding
Settings: with NBS DNA site
Method in brief: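 Bacterial one-hybrid selection in E. coli USO rpoZ- hisB- pyrF- with a HIS3 reporter carrying the site 19 bp from the promoter, screening Caulobacter ParB libraries with four specificity codons randomised (NNS). Cells grew 48 hours at 37°C on M9-minus-histidine plus 0.1 mM IPTG and 5 mM 3-AT. Plasmids before and after selection were Illumina-sequenced, three replicate libraries pooled, and variants under 10 reads dropped. Fitness is the log change in variant-to-wild-type read ratio, rescaled to cognate 1, non-cognate 0.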

one-hybrid fitness for binding NBS DNA, 0.242:
RVIR

one-hybrid fitness for binding NBS DNA, 0.387:
RHYR

one-hybrid fitness for binding NBS DNA, 0.456:
RKWT

one-hybrid fitness for binding NBS DNA, ≤ 0.2:
SCTW
TRMV
VHTS
ARPE
ENIE
SIAR
RFPQ
LYRS
RLQD
DYSV
HNQM
RDES
KWSS
NCPW
TPSY
TTTE
LCDS
QADK
QPER
YVED
NDVD
SAPW
HENC
LNSA
DVSS
GEWR
HEQT
APIV
SMLG
TIFS
PYTY
GYVS
KEPN
EARW
DQTL
CYMG
WQAS
PKIN
AYLM
ARSD
HDTR
QIVA
RSAP
AWLE
TGAE
GRQN
IHPF
IKQF
ELPG
CHRS
SLRI
GTWV
QTAG
SVND
VFKR
RWMH
FGHM
CHYG
CLDK
WRPG
TRTS
FKYC
KPEY
HPNF
NLNS
YTSG
TNIS
PNLI
GRNC
IMIS
HRNW
EIAP
CSHM
DDRS
YAAI
NPGG
CVAA
WYCT
LTQK
RWEM
PATE
ARHL
NNPW
VDWR
RQFE
NAKS
LITD
QTIG
THTR
WHRG
FISS
VCHS
GPHE
ETDT
ADSG
CPHS
VGSS
QYPF
GRRE
NAWL
FSMI
TQSR
KLGG
GFGL
SYHE
WSEL
LPKL
MDAW
WDDR
CHHE
KKPM
RHKW
DDVR
TLNY
PRSI
REVQ
LLHI
KKHL
MMFG
ATTP
LTSW
FPRV
TKPT
SKDP
EESV
DYSC
EHDM
QYQM
RFHY
CVVF
ALHE
AFLG
WWLN
NTPL
LHCT
LNRH
VPDM
TQPL
TIQF
TDTC
VDRL
VGVK
LHIV
LQLA
KRPK
SRLY
SAAV
RNCI
LEQE
CVAT
RPGT
PPGC
HRTP
MVES
HLYS
GQFR
TFAW
VHCK
HDWC
LFKS
TADN
NPIM
VPDW
AKNG
GNDR
GCSP
FSKL
GKHG
LIMG
KSPL
NVLL
PSLY
RAVN
EMPC
GTWS
CPVI
LTPR
VMVV
NTPR
HDPT
PFDV
RSRN
SAKY
PNAC
RVMY
PNTW
PYPA

one-hybrid fitness for binding NBS DNA, 0.427:
QHKN

one-hybrid fitness for binding NBS DNA, 0.26:
RMNH

one-hybrid fitness for binding NBS DNA, 0.286:
RALT

one-hybrid fitness for binding NBS DNA, 0.326:
QVAT

one-hybrid fitness for binding NBS DNA, 0.271:
TAKR

Source: a collection of fitness landscapes (doi:10.1016/j.celrep.2020.107928)
